# The other results are listed elsewhere or left out.
# Assays:
# Assay in all cases: glycan array binding signal (z-score within array); higher = stronger binding
# Details in all cases: glycan notation: IUPAC condensed, linker removed
# [1] = biological target: Fuc(a1-2)[Gal(a1-3)]Gal(b1-4)GlcNAc(b1-2)Man(a1-3)[Fuc(a1-2)[Gal(a1-3)]Gal(b1-4)GlcNAc(b1-2)Man(a1-6)]Man(b1-4)GlcNAc(b1-4)GlcNAc
# Method in brief: (§1)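 Columns mapping to the same glycan were averaged after glycan names were converted to IUPAC-condensed notation. The data come from 3228 arrays in the Consortium for Functional Glycomics database, limited to those with an available protein sequence. Binding is reported as a within-array Z-score averaged across arrays of one protein sequence and across linkers.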
# [2] = biological target: Fuc(a1-2)[Gal(a1-3)]Gal(b1-4)GlcNAc(b1-2)Man(a1-3)[Fuc(a1-2)[Gal(a1-3)]Gal(b1-4)GlcNAc(b1-2)Man(a1-6)]Man(b1-4)GlcNAc(b1-4)[Fuc(a1-6)]GlcNAc
# Method in brief: as §1
# [3] = biological target: Fuc(a1-2)[Gal(a1-3)]Gal(b1-4)GlcNAc(b1-3)GalNAc
# Method in brief: as §1
# [4] = biological target: Fuc(a1-2)[Gal(a1-3)]Gal(b1-4)GlcNAc(b1-6)GalNAc
# Method in brief: as §1
# [5] = biological target: Fuc(a1-2)[Gal(a1-3)]Gal(b1-4)[Fuc(a1-3)]Glc
# Method in brief: as §1
# [6] = biological target: Fuc(a1-2)[Gal(a1-3)]Gal(b1-4)[Fuc(a1-3)]GlcNAc
# Method in brief: as §1
# [7] = biological target: Fuc(a1-2)[Gal(a1-3)]Gal(b1-4)[Fuc(a1-3)]GlcNAc(b1-3)GalNAc
# Method in brief: as §1
# [8] = biological target: Fuc(a1-2)[Gal(a1-4)]Gal(b1-4)GlcNAc
# Method in brief: as §1
# [9] = biological target: Fuc(a1-2)[GalNAc(a1-3)]Gal
# Method in brief: as §1
# [10] = biological target: Fuc(a1-2)[GalNAc(a1-3)]Gal(b1-3)GalNAc(a1-3)[Fuc(a1-2)]Gal(b1-4)GlcNAc
# Method in brief: as §1
# [11] = biological target: Fuc(a1-2)[GalNAc(a1-3)]Gal(b1-3)GalNAc(b1-3)Gal(a1-4)Gal(b1-4)Glc
# Method in brief: as §1
# [12] = biological target: Fuc(a1-2)[GalNAc(a1-3)]Gal(b1-3)GlcNAc
# Method in brief: as §1
# [13] = biological target: Fuc(a1-2)[GalNAc(a1-3)]Gal(b1-3)GlcNAc(b1-2)Man(a1-3)[Fuc(a1-2)[GalNAc(a1-3)]Gal(b1-3)GlcNAc(b1-2)Man(a1-6)]Man(b1-4)GlcNAc(b1-4)GlcNAc
# Method in brief: as §1
# [14] = biological target: Fuc(a1-2)[GalNAc(a1-3)]Gal(b1-3)GlcNAc(b1-2)Man(a1-3)[Fuc(a1-2)[GalNAc(a1-3)]Gal(b1-3)GlcNAc(b1-2)Man(a1-6)]Man(b1-4)GlcNAc(b1-4)[Fuc(a1-6)]GlcNAc
# Method in brief: as §1
# [15] = biological target: Fuc(a1-2)[GalNAc(a1-3)]Gal(b1-3)GlcNAc(b1-3)GalNAc
# Method in brief: as §1
# [16] = biological target: Fuc(a1-2)[GalNAc(a1-3)]Gal(b1-3)GlcNAc(b1-6)GalNAc
# Method in brief: as §1
# [17] = biological target: Fuc(a1-2)[GalNAc(a1-3)]Gal(b1-4)Glc
# Method in brief: as §1
# [18] = biological target: Fuc(a1-2)[GalNAc(a1-3)]Gal(b1-4)GlcNAc
# Method in brief: as §1
# [19] = biological target: Fuc(a1-2)[GalNAc(a1-3)]Gal(b1-4)GlcNAc(b1-2)Man
# Method in brief: as §1
# [20] = biological target: Fuc(a1-2)[GalNAc(a1-3)]Gal(b1-4)GlcNAc(b1-2)Man(a1-3)[Fuc(a1-2)[GalNAc(a1-3)]Gal(b1-4)GlcNAc(b1-2)Man(a1-6)]Man(b1-4)GlcNAc(b1-4)GlcNAc
# Method in brief: as §1
# [21] = biological target: Fuc(a1-2)[GalNAc(a1-3)]Gal(b1-4)GlcNAc(b1-2)Man(a1-3)[Fuc(a1-2)[GalNAc(a1-3)]Gal(b1-4)GlcNAc(b1-2)Man(a1-6)]Man(b1-4)GlcNAc(b1-4)[Fuc(a1-6)]GlcNAc
# Method in brief: as §1
# [22] = biological target: Fuc(a1-2)[GalNAc(a1-3)]Gal(b1-4)GlcNAc(b1-3)Gal(b1-4)GlcNAc
# Method in brief: as §1
# [23] = biological target: Fuc(a1-2)[GalNAc(a1-3)]Gal(b1-4)GlcNAc(b1-3)Gal(b1-4)GlcNAc(b1-3)Gal(b1-4)GlcNAc
# Method in brief: as §1
# [24] = biological target: Fuc(a1-2)[GalNAc(a1-3)]Gal(b1-4)GlcNAc(b1-3)GalNAc
# Method in brief: as §1
# [25] = biological target: Fuc(a1-2)[GalNAc(a1-3)]Gal(b1-4)GlcNAc(b1-3)[Fuc(a1-2)[GalNAc(a1-3)]Gal(b1-4)GlcNAc(b1-6)]GalNAc
# Method in brief: as §1
# [26] = biological target: Fuc(a1-2)[GalNAc(a1-3)]Gal(b1-4)GlcNAc(b1-6)GalNAc
# Method in brief: as §1
# [27] = biological target: Fuc(a1-2)[GalNAc(a1-3)]Gal(b1-4)[Fuc(a1-3)]GlcNAc
# Method in brief: as §1
# [28] = biological target: Fuc(a1-2)[GalNAc(a1-3)]Gal(b1-4)[Fuc(a1-3)]GlcNAc(b1-3)GalNAc
# Method in brief: as §1
# [29] = biological target: Fuc(a1-2)[GalNAc(a1-4)]Gal(b1-4)GlcNAc
# Method in brief: as §1
# [30] = biological target: Fuc(a1-2)[GalNAc(b1-3)]Gal
# Method in brief: as §1
# [31] = biological target: Fuc(a1-3)GlcNAc
# Method in brief: as §1
# [32] = biological target: Fuc(a1-3)[Gal(b1-4)]Glc6S
# Method in brief: as §1
# [33] = biological target: Fuc(a1-3)[Gal(b1-4)]GlcNAc
# Method in brief: as §1
# [34] = biological target: Fuc(a1-3)[Gal(b1-4)]GlcNAc(b1-2)Man
# Method in brief: as §1
# [35] = biological target: Fuc(a1-3)[Gal(b1-4)]GlcNAc(b1-2)Man(a1-3)[Fuc(a1-3)[Gal(b1-4)]GlcNAc(b1-2)Man(a1-6)]Man(b1-4)GlcNAc(b1-4)GlcNAc
# Method in brief: as §1
# [36] = biological target: Fuc(a1-3)[Gal(b1-4)]GlcNAc(b1-2)Man(a1-3)[Fuc(a1-3)[Gal(b1-4)]GlcNAc(b1-2)Man(a1-6)]Man(b1-4)GlcNAc(b1-4)[Fuc(a1-6)]GlcNAc
# Method in brief: as §1
# [37] = biological target: Fuc(a1-3)[Gal(b1-4)]GlcNAc(b1-3)Gal(b1-3)[Fuc(a1-4)]GlcNAc
# Method in brief: as §1
# [38] = biological target: Fuc(a1-3)[Gal(b1-4)]GlcNAc(b1-3)GalNAc
# Method in brief: as §1
# [39] = biological target: Fuc(a1-3)[Gal(b1-4)]GlcNAc(b1-4)Gal(b1-4)[Fuc(a1-3)]GlcNAc
# Method in brief: as §1
# [40] = biological target: Fuc(a1-3)[Gal(b1-4)]GlcNAc(b1-4)Gal(b1-4)[Fuc(a1-3)]GlcNAc(b1-4)Gal(b1-4)[Fuc(a1-3)]GlcNAc
# Method in brief: as §1
# [41] = biological target: Fuc(a1-3)[Gal(b1-4)]GlcNAc(b1-6)GalNAc
# Method in brief: as §1
# [42] = biological target: Fuc(a1-3)[Gal(b1-4)]GlcNAc(b1-6)[Gal(b1-3)GlcNAc(b1-3)]Gal(b1-4)Glc
# Method in brief: as §1
# [43] = biological target: Fuc(a1-3)[Gal(b1-4)]GlcNAc6S
# Method in brief: as §1
# [44] = biological target: Fuc(a1-3)[Gal3S(b1-4)]Glc
# Method in brief: as §1
# [45] = biological target: Fuc(a1-3)[Gal3S(b1-4)]GlcNAc
# Method in brief: as §1
# [46] = biological target: Fuc(a1-3)[Gal3S(b1-4)]GlcNAc6S
# Method in brief: as §1
# [47] = biological target: Fuc(a1-3)[GalNAc(b1-4)]GlcNAc
# Method in brief: as §1
# [48] = biological target: Fuc(a1-3)[GalNAc(b1-4)]GlcNAc6S
# Method in brief: as §1
# [49] = biological target: Fuc(a1-4)GlcNAc
# Method in brief: as §1
# [50] = biological target: Fuc(b1-3)GlcNAc
# Method in brief: as §1
# [51] = biological target: Gal(a1-2)Gal
# Method in brief: as §1
# [52] = biological target: Gal(a1-3)Gal
# Method in brief: as §1
# [53] = biological target: Gal(a1-3)Gal(b1-3)GlcNAc
# Method in brief: as §1
# [54] = biological target: Gal(a1-3)Gal(b1-3)GlcNAc(b1-2)Man
# Method in brief: as §1
# [55] = biological target: Gal(a1-3)Gal(b1-3)GlcNAc(b1-2)Man(a1-3)[Gal(a1-3)Gal(b1-3)GlcNAc(b1-2)Man(a1-6)]Man(b1-4)GlcNAc(b1-4)GlcNAc
# Method in brief: as §1
# [56] = biological target: Gal(a1-3)Gal(b1-3)GlcNAc(b1-3)GalNAc
# Method in brief: as §1
# [57] = biological target: Gal(a1-3)Gal(b1-3)GlcNAc(b1-6)GalNAc
# Method in brief: as §1
# [58] = biological target: Gal(a1-3)Gal(b1-3)[Fuc(a1-4)]GlcNAc(b1-2)Man(a1-3)[Gal(a1-3)Gal(b1-3)[Fuc(a1-4)]GlcNAc(b1-2)Man(a1-6)]Man(b1-4)GlcNAc(b1-4)GlcNAc
# Method in brief: as §1
# [59] = biological target: Gal(a1-3)Gal(b1-4)Glc
# Method in brief: as §1
# [60] = biological target: Gal(a1-3)Gal(b1-4)GlcNAc
# Method in brief: as §1
binder,measurement,setting,value
"CBM13 2a (Mycobacterium tuberculosum), P64849 (protein) DGPVQLKSRLGDVCLDAPSGSWFSPLVINPCNGTDFQRWNLTDDRQVESVAFPGECVNIGNALWARLQPCVNWISQHWTVQPDGLVKSDLDACLTVLGGPDPGTWVSTRWCDPNAPDQQWDSVPLEHHHHHH",glycan array binding signal (z-score),[1],-0.34
same,glycan array binding signal (z-score),[2],-0.171
same,glycan array binding signal (z-score),[3],-0.12
same,glycan array binding signal (z-score),[4],-0.006
same,glycan array binding signal (z-score),[5],-0.083
same,glycan array binding signal (z-score),[6],0.03
same,glycan array binding signal (z-score),[7],-0.176
same,glycan array binding signal (z-score),[8],-0.387
same,glycan array binding signal (z-score),[9],-0.273
same,glycan array binding signal (z-score),[10],-0.25
same,glycan array binding signal (z-score),[11],-0.359
same,glycan array binding signal (z-score),[12],-0.251
same,glycan array binding signal (z-score),[13],-0.161
same,glycan array binding signal (z-score),[14],0.016
same,glycan array binding signal (z-score),[15],-0.274
same,glycan array binding signal (z-score),[16],-0.255
same,glycan array binding signal (z-score),[17],-0.227
same,glycan array binding signal (z-score),[18],-0.27
same,glycan array binding signal (z-score),[19],-0.311
same,glycan array binding signal (z-score),[20],-0.115
same,glycan array binding signal (z-score),[21],-0.121
same,glycan array binding signal (z-score),[22],-0.385
same,glycan array binding signal (z-score),[23],1.95
same,glycan array binding signal (z-score),[24],-0.126
same,glycan array binding signal (z-score),[25],-0.133
same,glycan array binding signal (z-score),[26],-0.303
same,glycan array binding signal (z-score),[27],0.434
same,glycan array binding signal (z-score),[28],-0.037
same,glycan array binding signal (z-score),[29],-0.467
same,glycan array binding signal (z-score),[30],-0.416
same,glycan array binding signal (z-score),[31],-0.168
same,glycan array binding signal (z-score),[32],-0.036
same,glycan array binding signal (z-score),[33],-0.325
same,glycan array binding signal (z-score),[34],-0.033
same,glycan array binding signal (z-score),[35],-0.052
same,glycan array binding signal (z-score),[36],-0.043
same,glycan array binding signal (z-score),[37],0.154
same,glycan array binding signal (z-score),[38],-0.227
same,glycan array binding signal (z-score),[39],-0.173
same,glycan array binding signal (z-score),[40],-0.341
same,glycan array binding signal (z-score),[41],0.13
same,glycan array binding signal (z-score),[42],-0.272
same,glycan array binding signal (z-score),[43],-0.247
same,glycan array binding signal (z-score),[44],-0.113
same,glycan array binding signal (z-score),[45],0.314
same,glycan array binding signal (z-score),[46],-0.134
same,glycan array binding signal (z-score),[47],-0.31
same,glycan array binding signal (z-score),[48],-0.217
same,glycan array binding signal (z-score),[49],-0.322
same,glycan array binding signal (z-score),[50],-0.235
same,glycan array binding signal (z-score),[51],-0.158
same,glycan array binding signal (z-score),[52],-0.269
same,glycan array binding signal (z-score),[53],-0.106
same,glycan array binding signal (z-score),[54],-0.204
same,glycan array binding signal (z-score),[55],-0.07
same,glycan array binding signal (z-score),[56],-0.132
same,glycan array binding signal (z-score),[57],-0.286
same,glycan array binding signal (z-score),[58],0.142
same,glycan array binding signal (z-score),[59],-0.17
same,glycan array binding signal (z-score),[60],-0.203
